Results published in paper PMC4336329 (PLoS ONE, 2015).
Screen size: about 310,000 compounds; about 14,000 (4.5%) showed an effect of 50% or more. Effects have a minus sign here. The list shows a part of the results.

Target: human ether-à-go-go-related gene (hERG) potassium channel (human, UniProt Q12809)
Assay: primary screen, population patch clamp on CHO cells stably expressing hERG
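Also: peak tail current of the secondary pulse compared with the same well before compound.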

human ether-à-go-go-related gene (hERG) potassium channel, sequence (Q12809 whole entry, looked up): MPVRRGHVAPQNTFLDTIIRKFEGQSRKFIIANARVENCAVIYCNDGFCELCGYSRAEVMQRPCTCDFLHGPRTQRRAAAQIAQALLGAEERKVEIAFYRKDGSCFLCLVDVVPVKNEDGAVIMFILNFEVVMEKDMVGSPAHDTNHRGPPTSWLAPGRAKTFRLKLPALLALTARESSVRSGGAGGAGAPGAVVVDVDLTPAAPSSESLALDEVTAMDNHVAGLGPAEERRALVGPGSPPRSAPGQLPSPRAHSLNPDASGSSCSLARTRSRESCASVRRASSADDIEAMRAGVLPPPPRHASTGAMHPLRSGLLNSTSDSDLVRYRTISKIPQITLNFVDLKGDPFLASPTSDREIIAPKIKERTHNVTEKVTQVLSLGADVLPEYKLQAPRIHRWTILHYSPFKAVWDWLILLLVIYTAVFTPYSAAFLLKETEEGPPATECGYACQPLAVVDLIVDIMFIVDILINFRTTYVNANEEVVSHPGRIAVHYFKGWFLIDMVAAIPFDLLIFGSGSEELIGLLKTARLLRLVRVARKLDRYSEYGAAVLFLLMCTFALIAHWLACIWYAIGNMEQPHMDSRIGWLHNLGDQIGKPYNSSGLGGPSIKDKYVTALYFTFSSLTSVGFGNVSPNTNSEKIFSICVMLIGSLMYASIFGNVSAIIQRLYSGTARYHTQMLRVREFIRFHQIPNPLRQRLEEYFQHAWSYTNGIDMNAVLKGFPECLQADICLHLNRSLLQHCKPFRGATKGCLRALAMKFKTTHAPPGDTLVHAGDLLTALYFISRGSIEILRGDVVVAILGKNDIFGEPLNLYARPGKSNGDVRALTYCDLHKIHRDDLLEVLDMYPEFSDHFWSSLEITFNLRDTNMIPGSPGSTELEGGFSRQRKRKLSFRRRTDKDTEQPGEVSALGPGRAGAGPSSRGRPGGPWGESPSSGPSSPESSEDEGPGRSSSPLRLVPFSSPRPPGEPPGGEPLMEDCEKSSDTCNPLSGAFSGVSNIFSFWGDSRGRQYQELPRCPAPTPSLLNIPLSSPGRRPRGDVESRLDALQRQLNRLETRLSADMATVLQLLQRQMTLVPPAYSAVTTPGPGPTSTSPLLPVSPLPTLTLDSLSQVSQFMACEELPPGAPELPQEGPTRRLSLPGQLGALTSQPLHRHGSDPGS

Compound | hERG current change (%, negative = inhibition) at 10uM [%]
Clc1ccccc1-c1nnc2sc(-c3ccc(Br)o3)nn12 | -9.09
COC(=O)[C@H](Cc1c[nH]c2ccccc12)NC(=O)Nc1ccccc1OC | -0.283
N#Cc1cc(S(=O)(=O)c2ccc(Cl)cc2)c(N)[nH]c1=O | -12.6
O=C(Nc1ccc(S(=O)(=O)N2CCCCC2)cc1)c1ccncc1 | -13.1
COc1ccc(C)cc1NC(=O)COC(=O)c1c(C)noc1C | -7.92
CC1CCN(C(=O)C2CCN(S(=O)(=O)c3cccs3)CC2)CC1 | 5.61
CC(=O)Nc1ccc(S(=O)(=O)Nc2cc(C)c(-n3nc4ccccc4n3)cc2O)cc1 | 5.05
CCC(=O)Nc1ccc(C(=O)CSc2nc3ccccc3cc2CC)cc1 | -4.95
Cc1ccc(OCC(=O)NNC(=O)C(=O)NC(C)(C)C)cc1 | 2.1
Cc1[nH]n(-c2ncc(-c3ccc(Cl)cc3)s2)c(=O)c1C(c1ccc(Cl)cc1)C(C#N)C#N (centres unmarked) | 5.38
NC(=O)C1=C[C@@H](c2ccc(C(F)(F)F)cc2)C[C@@H](OCc2ccc(CO)cc2)O1 | -19.1
COc1ccc(N(C)C(=O)Cn2c(=O)oc3ccccc32)c(OC)c1 | -14.7
Cc1cc(C)cc(OCC(=O)N2N=C(c3cccnc3)CC2(O)C(F)(F)F)c1 (centres unmarked) | -15.3
COc1ccc(OC)c(-c2nc3ccccc3nc2-c2ccccc2)c1 | 14.4
O=C(CN1CCc2ccccc2C1)Nc1cccc(S(=O)(=O)N2CCCC2)c1 | -10.5
CN(C)c1ccc(C(CNC(=O)c2ccccc2)c2c[nH]c3ccccc23)cc1 (centres unmarked) | -22
CCOC(=O)N1CCN(C(=O)CCS(=O)(=O)c2ccc3c(c2)CC(C)N3C(=O)CC)CC1 (centres unmarked) | -4.81
CCCCN1CC(O)=C(c2nc3ccccc3s2)C1=N | 0.804
CCOCCCNC(=O)C1CCN(C(=O)Nc2ccc(Cl)cc2)CC1 | -8.08
Cc1ccc(S(=O)(=O)Oc2ccc(/C=C(/NC(=O)c3ccccc3)C(=O)O)cc2)cc1 | 34.7
Cc1cccc2c(C(=O)N3CCN(c4ccccn4)CC3)cc(-c3cccc(Br)c3)nc12 | 10.5
Nc1nc(NC(=O)C(Cl)(Cl)Cl)nn1-c1ccccc1 | 16.7
CCOc1ccc(C(=O)Nc2ccc3c(c2)OCCO3)cc1[N+](=O)[O-] | 10.3

Compound | hERG current change (%, negative = inhibition) at 10uM [%]
COc1ccc(NC(=O)c2ccc3[nH]c(=O)c(=O)[nH]c3c2)c(OC)c1 | 27.9
COc1cccc(OC)c1-c1nn(-c2ncc(C(F)(F)F)cc2Cl)c(=O)o1 | 14.2
CCC1=NN2C(=N)/C(=C/c3c(C)nn(-c4ccccc4)c3Cl)C(=O)N=C2S1 | -43.1
Cc1cc(C)cc(NC(=O)Nc2ccc(-n3ccc(C(F)(F)F)n3)cc2)c1 | 15.4
CC(C)CCNC(=O)CN(Cc1ccco1)C(=O)c1snc(C(N)=O)c1N | -5.71
c1ccc(-c2cnn3nnnc3n2)cc1 | 5.77
Cc1cccc(N2CCN(c3ccc(N4C(=O)CCCC4=O)cc3[N+](=O)[O-])CC2C)c1 (centres unmarked) | 14.9
CCC(NC(=O)C1CCCO1)c1ccccc1 (centres unmarked) | 22.8
O=C(CSc1nncc2ccccc12)Nc1cccc(O)c1 | -11.6
Cc1cc(NC(=O)c2cccc(S(=O)(=O)N3CC(c4ccccc4)CC3=O)c2)no1 (centres unmarked) | -23
NC(=O)C1CCCN(C(=O)c2ccc(Cl)cc2)C1 (centres unmarked) | 6.59
Cc1noc2c1C(c1ccc(N(C)C)cc1)C1=C(CC(C)(C)CC1=O)N2 (centres unmarked) | -4.91
O=C(CCCOc1ccccc1)NN1C(=O)NC2(CCCCC2)C1=O | 32.7
Cc1ccsc1C(=O)N/N=C/c1ccc2c(c1)OCO2 | 8.07
CC(=O)Nc1cccc(NC(=O)c2csc(C)c2)c1 | 4.56
COc1cc2c(cc1OC)CN(CC(=O)Nc1ccc(F)cc1F)CC2 | -10.3
CCCCCC(=O)Nc1sc(C)c(C)c1C#N | -1.66
Cc1ccc(CNS(=O)(=O)c2c(C(=O)N3CCCCC3)c(C)n(C)c2C)cc1 | 1.58
CSc1ncccc1C(=O)NNc1cc(Cl)ccc1Cl | 8.87
Cc1cc(NC(=O)CSc2ncnc3c2cnn3-c2cccc(Cl)c2)no1 | 14.3
C=CCNc1ncnc2c1[nH]c1ccc(Cl)cc12 | -7.82
Cc1c(C#N)c(NC(=O)CCl)n(Cc2ccccc2)c1C | 31.1
Cc1ccc(-n2ncc3c(=O)[nH]c(SCC(=O)N4CCOCC4)nc32)cc1 | 8.98

Compound | hERG current change (%, negative = inhibition) at 10uM [%]
COCCSc1ccccc1C(=O)Nc1ccc(Br)cc1 | -18.6
N#Cc1ccc(S(=O)(=O)NC2CCCCNC2=O)cc1 (centres unmarked) | 15
Cc1ccc2c(c1)NC(=O)C(CC(=O)NCCN(C)C)O2 (centres unmarked) | -2.42
COc1ccc(C(=O)N/N=c2\oc3ccccc3cc2C(N)=O)cc1 | -6.68
CC(C(=O)OCC(=O)Nc1cccc(S(=O)(=O)N2CCOCC2)c1)N1C(=O)c2ccccc2C1=O (centres unmarked) | -58
Cc1ccc(C(=O)O)cc1NC(=S)NC(=O)C(c1ccccc1)c1ccccc1 | -7.38
COc1cc(NC(=O)C2CCCCC2)c(OC)cc1NC(=O)CN1CCCCC1 | -12
Cc1cccc(N2C(=O)CSC23CCCCC3)c1 | 36.1
Cc1ccc(/C=C2\SC(=S)N(/N=C/c3cc([N+](=O)[O-])ccc3O)C2=O)o1 | 3.82
CC(C)n1nc(C(=O)OCn2nnc3ccccc3c2=O)c2ccccc2c1=O | 10.2
NC(=S)N/N=C/c1ccc(-c2ccc([N+](=O)[O-])cc2)o1 | 37.1
Cc1cccc(NC(=O)CSc2ncnc3nc[nH]c23)c1 | 1.6
COCCN1C(=O)CC(NNC(=O)c2ccc(S(=O)(=O)N3CCCC3)cc2)C1=O (centres unmarked) | 10
CCOc1ccc(OCC)c(S(=O)(=O)NCc2ccccc2)c1 | -10.1
COc1ccc(C(=O)N=C2SC3CS(=O)(=O)CC3N2c2ccc(N(C)C)cc2)cc1OC (centres unmarked) | 4.58
CC1CCN(S(=O)(=O)c2cnc[nH]2)CC1 | 19.9
O=C(COc1ccccc1)Nc1nn[nH]n1 | 15.2
COc1ccc(CN2CCCCCC2)cc1OC | -18.5
CSc1ccc(/C=C/C(=O)NC23CC4CC(CC(C4)C2)C3)cc1 | 14.6
Cc1n[nH]c(=S)n(/N=C/c2cccc([N+](=O)[O-])c2)c1=O | 8.42
Cc1cc(N/N=C/c2ccccc2)nc(N)n1 | -14.5
CC1CC(C)CN(C(=O)C2CC(=O)N(c3ccc4c(c3)OCCO4)C2)C1 (centres unmarked) | 9.34
CC(C)(C)S(=O)(=O)/C(C#N)=N/Nc1ccc(C#N)cc1 | 22.1

Compound | hERG current change (%, negative = inhibition) at 10uM [%]
O=C(N=Nc1ccc(NOC(=O)c2ccccc2Br)cc1)c1ccccc1O | 16.3
Cc1ccccc1N1CCN(CCCCN2C(=O)C3CCCN3C2=O)CC1.Cl.O (centres unmarked) | -65.4
N#Cc1ccccc1COC(=O)c1ccc2c(c1)OCO2 | -16
Cc1ccc(C)c(CSc2nnc(C)c(=O)n2N)c1 | 6.34
Cc1c(/C(O)=C2/C(=O)C(=O)N(Cc3cccnc3)C2c2cccs2)cnn1-c1ccccc1 (centres unmarked) | 13.8
C/C(=N\NC(=O)c1ccc(N2CCCC2=O)cc1)c1ccc(O)cc1O | 13.5
FC(F)Oc1ccc(NC(=S)NN2CCOCC2)cc1 | 14.9
COc1cc2c(cc1OC)CN(S(=O)(=O)/C=C/c1ccccc1)CC2 | -9.37
Fc1ccccc1CCNCc1cccc2ccccc12 | -18.2
COc1cccc(C(=O)NCCS(=O)(=O)NC2CCCC2)c1 | 12.5
Cn1nnc2c[n+](CC(=O)c3ccc(Cl)cc3)cc(Br)c21.[Br-] | -24.7
CC(NC(=S)Nc1ccc(OC(F)F)cc1OC(F)F)C(C)(C)C (centres unmarked) | -1.92
Cn1c(CN2CCOCC2)nnc1SCC(=O)NC1CCCCC1 | 17.7
COc1ccc(CC(=O)Nc2ccc(/C(C)=N/NC(=O)c3cccc([N+](=O)[O-])c3)cc2)cc1 | 8.6
CCOC(=O)c1c(C)n(C)c2ccc(O)c(CN3CCC(C)CC3)c12 | -23.2
CC(=C/c1ccco1)/C=N/NC(=O)c1nnn(-c2nonc2N)c1CN(C)C | -47.1
COc1ccc(NC(=O)CCCCCn2nnc3ccccc3c2=O)cc1OC | 14.8
COC(=O)C1=C(c2ccc(F)cc2F)C[C@@H]2CC[C@H]1N2C(=O)NCc1ccc2c(c1)OCO2 | -33.5
COc1ccc(-c2nc(C#N)c(NCc3ccc(F)cc3)o2)cc1OC | -7.3
CCN(CC)CCN(Cc1cc2cccc(C)c2[nH]c1=O)C(=S)Nc1ccccc1 | -66.2
